# Data as given in article PMC4336329 (PLoS ONE, 2015).
# Hit rate of the full screen: of about 310,000 compounds, about 14,000 (4.5%) showed an effect of 50% or more. Effects have a minus sign here. This is one part of the list.
# Molecular target: human ether-à-go-go-related gene (hERG) potassium channel (human, UniProt Q12809)
# Test: primary screen, population patch clamp on CHO cells stably expressing hERG
# 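Also: peak tail current of the secondary pulse compared with the same well before compound.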
# Chain of human ether-à-go-go-related gene (hERG) potassium channel (Q12809 whole entry, looked up): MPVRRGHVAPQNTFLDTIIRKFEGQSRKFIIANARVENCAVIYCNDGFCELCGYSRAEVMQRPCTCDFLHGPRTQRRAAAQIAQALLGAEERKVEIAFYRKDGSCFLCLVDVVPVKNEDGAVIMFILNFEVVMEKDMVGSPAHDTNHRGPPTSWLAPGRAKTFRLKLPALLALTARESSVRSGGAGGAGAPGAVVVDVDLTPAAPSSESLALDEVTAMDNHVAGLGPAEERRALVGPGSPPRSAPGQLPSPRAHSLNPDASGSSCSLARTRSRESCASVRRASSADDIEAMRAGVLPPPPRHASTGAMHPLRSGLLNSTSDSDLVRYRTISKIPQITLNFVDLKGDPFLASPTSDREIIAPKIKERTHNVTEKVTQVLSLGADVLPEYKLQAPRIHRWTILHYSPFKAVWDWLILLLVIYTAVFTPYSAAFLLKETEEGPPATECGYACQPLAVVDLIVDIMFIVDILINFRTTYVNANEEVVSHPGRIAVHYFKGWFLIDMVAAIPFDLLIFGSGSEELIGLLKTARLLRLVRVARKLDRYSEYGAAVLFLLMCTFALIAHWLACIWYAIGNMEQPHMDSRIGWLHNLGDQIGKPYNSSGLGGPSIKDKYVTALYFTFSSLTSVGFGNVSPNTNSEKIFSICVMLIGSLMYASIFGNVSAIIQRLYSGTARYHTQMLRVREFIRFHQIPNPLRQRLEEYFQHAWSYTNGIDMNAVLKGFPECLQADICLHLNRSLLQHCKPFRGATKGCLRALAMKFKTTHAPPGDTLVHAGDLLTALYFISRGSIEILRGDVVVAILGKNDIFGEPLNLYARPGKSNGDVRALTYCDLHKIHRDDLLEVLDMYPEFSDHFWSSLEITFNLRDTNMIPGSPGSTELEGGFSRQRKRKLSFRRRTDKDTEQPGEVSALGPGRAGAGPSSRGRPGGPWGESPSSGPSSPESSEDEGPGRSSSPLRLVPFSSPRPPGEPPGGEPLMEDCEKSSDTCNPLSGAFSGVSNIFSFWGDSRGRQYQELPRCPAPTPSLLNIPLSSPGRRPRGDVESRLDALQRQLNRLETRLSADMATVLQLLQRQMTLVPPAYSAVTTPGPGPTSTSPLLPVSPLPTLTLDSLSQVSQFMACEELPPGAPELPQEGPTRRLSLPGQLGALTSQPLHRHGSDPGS
row,SMILES,"hERG current change (%, negative = inhibition) at 10uM [%]"
1,CC1CN(CCC(=O)Nc2ccccc2F)CC(C)O1 (stereo not drawn),9.33
2,Cn1cnnc1SCc1ccc(C(=O)n2ncc(C#N)c2N)cc1,4.43
3,CC(=O)Nc1cc(S(=O)(=O)Nc2ccc(C)cc2)c(C)cc1C,7.32
4,Cc1cccc(OCC(=O)NCC(=O)N/N=C/c2cccnc2)c1,5.67
5,C/C(=N/OC(=O)CC(C)C)c1cc(-c2ccc(Cl)cc2)no1,15
6,Nc1nonc1-n1nnc(C(=O)N/N=C/c2ccc(OCc3ccccc3F)cc2)c1CN1CCCCC1,8.74
7,COc1ccc(NC(=O)/C=C/c2ccc(S(=O)(=O)N3CCOCC3)cc2)cc1,4.44
8,O=C1CSc2ccc(S(=O)(=O)NCc3ccccc3Cl)cc2N1,1.49
9,O=C(COC(=O)c1ccc(NS(=O)(=O)c2cccs2)cc1O)NC1CCCCC1,8.92
10,Cc1ccc(NC(=O)CSc2nnc(CNC(=O)C34CC5CC(CC(C5)C3)C4)n2-c2ccc(F)cc2)cc1,9.39
11,C=C(C)COc1ccc2c(C)c(CC(=O)N3C[C@H]4C[C@@H](C3)c3cccc(=O)n3C4)c(=O)oc2c1,-48.5
12,CNc1c(NS(=O)(=O)c2ccc(F)c(Cl)c2)c(=O)oc2ccccc12,3.54
13,Cc1ccc(NC(=O)CC(C)N2CCCC2)cc1 (stereo not drawn),7.89
14,Cc1ccc(CNC(=O)C(=O)NCC2CCCN2S(=O)(=O)c2cccs2)cc1 (stereo not drawn),-36.6
15,CCOc1ccccc1C1NC(=O)CCC1[N+](=O)[O-] (stereo not drawn),17.2
16,CCCNS(=O)(=O)c1ccc(OCC(=O)NCCC2=CCCCC2)cc1,-9.97
17,Clc1ccc(Cn2ccc(C3CC3)n2)cc1,-1.79
18,N#CC1=C(N)OC2=C(C(=O)CCC2)C1c1ccc2c(c1)OCO2 (stereo not drawn),10.3
19,Cc1ccc(CN(C)CC(=O)NC(C)c2ccccc2)cc1 (stereo not drawn),-16
20,CC(C)N(Cc1ccccc1)C(=O)/C=C/c1ccccc1[N+](=O)[O-],-31.4
21,COc1ccc(-c2noc(=O)n2Cc2ccccc2F)cc1,-5.9
22,COc1ccc2cc(C(=O)C3CCCN(Cc4cnc(C)s4)C3)ccc2c1 (stereo not drawn),-28.8

row,SMILES,"hERG current change (%, negative = inhibition) at 10uM [%]"
1,NNC(=O)c1cc2cc(OC(F)(F)F)ccc2[nH]1,-25.4
2,O=C(CSc1ncnc2scc(-c3ccccc3)c12)NCc1ccc2c(c1)OCO2,13.8
3,Cc1cc(NC(=O)[C@H](C)NC(=O)c2ccco2)ccc1Br,13.3
4,CCC1=Nc2cc(C(=O)NCCCN3CCOCC3)ccc2Sc2ccccc21,-19.8
5,CCN(CC)c1ccc(NS(=O)(=O)c2ccc3c(c2)oc(=O)n3C)c(C)c1,10.3
6,Cc1ccc(NC(=O)CN(C)C2CCCCC2)cc1Br.Cl,-28.8
7,Cc1ccc(C(=O)N(CC(=O)NC2CCCC2)Cc2cccs2)s1,-43.8
8,Cc1ccc(CCC(=O)Nc2ncc(Cc3cccc(Cl)c3Cl)s2)o1,51.7
9,NC(=O)SCC(=O)Nc1cccc(Cl)c1,8.99
10,O=C(NNc1nc(Nc2ccccc2)nc(N2CCOCC2)n1)Nc1ccc(Cl)cc1,13.2
11,COc1ccc(/C=N/n2cc(-c3ccccc3)nc2N)cc1,-35.1
12,CN1/C(=C\C=N\NC(=O)c2cccnc2)C(C)(C)c2ccccc21,7.12
13,Cc1ccc(N2CC(C(=O)NCCN3CCOCC3)CC2=O)cc1C (stereo not drawn),10.2
14,Cn1cnc(S(=O)(=O)Nc2cc(C(F)(F)F)ccc2N2CCOCC2)c1,20.1
15,Cc1noc(C)c1/C=N/Nc1ccc2ccccc2n1,7.03
16,O=C(C1=NN[C@@H]2C(=O)N(Cc3ccccc3)C(=O)[C@H]12)c1ccc([N+](=O)[O-])cc1,-50.2
17,CC(C)C(c1nnnn1Cc1ccc(F)cc1)N1CCN(C(=O)c2ccco2)CC1 (stereo not drawn),-49.1
18,CC(C)c1nc2oc3c(=O)[nH]cnc3c2c2c1CCC2,-13.5
19,CCC(C)(C)NC(=O)CN(C(=O)CNS(=O)(=O)c1ccc(F)cc1)c1ccc2c(c1)OCCO2,1.71
20,O=C(CSc1nnc(-c2ccc(O)cc2)o1)Nc1cccc(O)c1,14.8
21,CCOc1cc(N)c(Cl)cc1C(=O)NCC1CN(Cc2ccc(F)cc2)CCO1.O=C(O)CC(O)(CC(=O)O)C(=O)O (stereo not drawn),-16.7
22,Clc1ccc(N2CCN(/N=C/c3cccnc3)CC2)cc1,-1.21

row,SMILES,"hERG current change (%, negative = inhibition) at 10uM [%]"
1,Cc1cc(C)c(S(=O)(=O)NCCn2c(C)cc3ccccc32)c(C)c1,9.36
2,CCOC(=O)c1ccccc1NC(=O)COC(=O)CCC(=O)c1ccccc1,16.3
3,Clc1c(-c2nnc3n2CCC3)sc2ccccc12,10.4
4,COC(=O)c1cnn(-c2ccc(C)c(C)c2)c1-n1cccc1,-1.03
5,CCCC(C)c1nc(C(N)=O)c2[nH]c(=O)n(-c3ccc(OC)cc3OC)c2n1 (stereo not drawn),9.19
6,O=C(CCS(=O)(=O)c1cccc2nsnc12)NC1CCCCCC1,11.4
7,CCC(CC)NC(=O)Cn1c(C(C)NC(C)=O)nc2ccccc21 (stereo not drawn),17.6
8,CC(C)CCNC(=O)CCC(=O)NNc1nc2ccccc2c2nc(-c3ccccc3)nn12,5.85
9,Cn1nc(-c2ccccc2)c(C#N)c1Sc1cccc(Cl)c1,12.5
10,O=C(COC(=O)Cc1ccsc1)Nc1ccccc1Cl,-5.18
11,O=C(CN1CCN(c2ccccc2O)CC1)NC(=O)NCc1ccccc1,-9.32
12,Cc1ccsc1/C=N/NC(=O)c1cccc(S(=O)(=O)Nc2ccccc2Cl)c1,-11.8
13,COc1ccc2c(c1OC)C(=O)OC2c1c(O)n(Cc2ccc(F)cc2)c(=O)[nH]c1=O (stereo not drawn),3.09
14,O=C1CC(c2cccc(Cl)c2)Cc2nc(N3CCN(c4ccccc4)CC3)ncc21 (stereo not drawn),11.7
15,Clc1nc(NCc2cccnc2)nc(N2CCOCC2)n1,-1.61
16,CS(=O)(=O)c1ccc(Cl)c(NC(=O)COC(=O)c2ccc(F)cc2Cl)c1,-3.18
17,O=C(Oc1ccc(Br)cc1C(=S)N1CCCC1)c1ccccc1F,3.94
18,COC(=O)CS(=O)(=O)c1ccc(C)cc1,34.8
19,COc1ccc(OC)c(S(=O)(=O)N2CCN(c3ccccc3)CC2)c1,-28.1
20,Cc1ccc(S(=O)(=O)N(C)CC(=O)N2CCOCC2)cc1,6.11
21,Cc1ccc2nc(SCCC#N)nc(C)c2c1,1.8
22,O=C(CC(Cc1ccccc1)C(=O)O)Nc1ccc(F)cc1 (stereo not drawn),10.4

row,SMILES,"hERG current change (%, negative = inhibition) at 10uM [%]"
1,Cc1nc(CNC(=O)c2ccccc2OC2CCN(S(C)(=O)=O)CC2)cs1,-6.71
2,c1ccc(CNc2nc(NCc3ccco3)nc(N3CCOCC3)n2)cc1,-28.5
3,COc1ccc(NC(=O)CSc2nnc(CNC(=O)c3ccco3)o2)cc1,11.8
4,CCN(CC)S(=O)(=O)c1ccc(N2CCCC2)c(NC(=O)CN2C(=O)NC3(CCCC3)C2=O)c1,2.65
5,CCCCc1ccc(Nc2nc(CCC)cc(=O)[nH]2)cc1,5.17
6,COC(=O)c1c(NC(=O)c2ccco2)sc(C(=O)N2CCCC2)c1C,-4.55
7,Cc1ccccc1/C=N/NC(=O)c1cccnc1,-2.46
8,CN1CCN(c2cc(-c3cc(O)c4ncccc4c3)ccn2)CC1,3.6
9,c1ccc2nc(N3CCOCC3)c(N3CCOCC3)nc2c1,-1.12
10,COC(=O)c1cc2nc(-c3ccc(OC)c(OC)c3)cc(C(F)(F)F)n2n1,22.4
11,CCCN(C(=O)CSc1nc2cc(S(=O)(=O)N(CC)CC)ccc2o1)C1CCS(=O)(=O)C1 (stereo not drawn),-14.5
12,COc1ccc(S(=O)(=O)N2CCCCCC2)cc1C(=O)N(C)CC(=O)Nc1ccccc1C(F)(F)F,-23
13,CC(C)c1ccccc1-n1c(SCC(=O)N2CCN(c3ccccc3)CC2)nnc1-c1cccnc1,-24.3
14,Cc1ccnc(NS(=O)(=O)c2ccc(NC(=O)C3CCCNC3=O)cc2)n1 (stereo not drawn),-10.7
15,CCCN1C(=O)/C(=c2\sc3nc(=O)c(Cc4ccc(C)cc4)nn3c2=O)c2ccccc21,21.2
16,N/C(=N\c1nc2ccccc2o1)NC(=O)c1ccc([N+](=O)[O-])cc1,-4.98
17,Cc1ccc(S(=O)(=O)N2CCOC2CNC(=O)C(=O)NCCCc2ccccc2)cc1 (stereo not drawn),3.65
18,Cl.O=C(Nc1cccc(C(F)(F)F)c1)c1cccnc1N1CCOCC1,17.3
19,Cc1ccc(NC(=O)O/N=C/c2ccc(N(C)C)cc2)cc1,14.6
20,COc1ccc(N2CCN(C(=O)c3ccc4c(=O)n(CCc5ccc(OC)c(OC)c5)c(=O)[nH]c4c3)CC2)cc1,8.27
21,CCC(CC)NC(=O)CSc1nnc(-c2ccc(OC)cc2)n1C(C)C,-12.4
